Measurements from US20100068302A1, “METHODS AND COMPOSITIONS FOR THE TREATMENT OF CANCER” (TRASLATIONAL CANCER DRUGS PHARMA, S.L., priority 2008, published 2010).

Key:
[1] = system: H460 non-small lung cancer cells; experiment: Cell proliferation assay (MTT), H460; format: cell-based, human
[2] = system: H460stock cells; experiment: Cell proliferation assay (MTT), H460stock control line; format: cell-based, human
Description: (§1) Cell lines resistant to MN58b and RSM-932A (identified as MN58R and RSM-932A-R, respectively) were generated by prolonged continuous exposure to increasing concentrations of each drug. A parallel control (H460 stock) of the cell line in the absence of the compounds was kept in culture for the same time.
(§2) Cells were seeded on 96-well plates (B D, Falcon, Bioscience, San Jose, Calif., USA) at a density of 6000 cells/well, and incubated for 24 h under standard conditions. Then, cells were treated with different concentrations of the ChoK inhibitors (quadruplicates of each concentration) and maintained for 72 hours. […] Absorbance is read at 595 nm in a VersaMax Microplate Reader (Molecular Devices, Sunnyvale, Calif., USA). For sensitization with acid ceramidase inhibitor, cells were pre-treated 4 hours with the correspondent IC50 for NOE before treatment with ChoK inhibitors. NOE (N-Oleoyl ethanolamine) was obtained from Calbiochem (La Jolla, Calif., USA).
(§3) To further study the mechanism underlying resistance to ChoK inhibition, as well as the implication of acid ceramidase in this effect, we used the human NSCLC-derived H460 cell line for a set of in vitro experiments. […]

[3] = system: H460 MN58R cells; experiment: Cell proliferation assay (MTT), H460 line resistant to MN58b; format: cell-based, human
Description: as §1, §2, §3

[4] = system: H460 RSM-932AR cells; experiment: Cell proliferation assay (MTT), H460 line resistant to RSM-932A; format: cell-based, human
Description: as §1, §2, §3

[5] = system: H460 cells; experiment: Combination index assay (Chou Talalay) cisplatin plus ChoK inhibitors; format: cell-based, human; conditions: cisplatin 3 h followed by 40 h of ChoK inhibitor, CI<1 synergistic, CIs<0.5 strong synergistic
Description: All experiments were performed in quadruplicate.

[6] = system: DLD-1 colon cancer derived cells; experiment: MTT cytotoxicity, ChoKI and TRAIL, DLD-1
Excerpt: (§4) To that end, five colon cancer derived cell lines were used: DLD-1, HT-29, HCT-116, SW620 and SW480.

[7] = system: HT-29 colon cancer derived cells; experiment: MTT cytotoxicity, ChoKI and TRAIL, HT-29
Excerpt: as §4

[8] = system: SW620 colon cancer derived cells; experiment: MTT cytotoxicity, ChoKI and TRAIL, SW620
Excerpt: as §4

[9] = system: DLD-1, HT-29, HCT-116, SW620 and SW480; experiment: MTT sensitivity in five colon cancer derived cell lines; format: cell-based; conditions: five colon cancer derived cell lines (FIG. 7)
Excerpt: as §4

[10] = system: PARP degradation or caspase 3 activation; experiment: Western blot of PARP and caspase-3; format: cell-based; conditions: TRAIL and choline kinase inhibitor combined, Western blot (FIG. 8D)
Description: Western blot analysis of equal amounts of cell lysates (30 μg) was performed using each correspondent antibody. Proteins were resolved by electrophoresis onto 10% SDS-PAGE gels and transferred to nitro-cellulose. Blots were blocked for 2 h in 5% non-fat dried milk in T-TBS. Determination of ASAH1 was carried out using a monoclonal antibody (1:250) obtained from BD Transduction Laboratories (Ref. 6123012). As loading control, blots were assayed against α-tubulin (Sigma T9026). Determination of caspase-3 and PARP was carried out using anti-caspase-3 and anti-PARP antibodies (Santa Cruz Biotechnology, Santa Cruz, Calif.).

CN(c1ccc(Cl)cc1)c1cc[n+](Cc2ccc(-c3ccc(C[n+]4ccc(N(C)c5ccc(Cl)cc5)c5ccccc54)cc3)cc2)c2ccccc12.[Br-].[Br-] [RSM-932A, 1,1′-(biphenyl-4,4′-diylmethylene)bis [4-(4-chloro-N-methylanilino-)quinolinium]dibromide]
IC50 ([1]; H460 (Table 8), read-out: IC50): 1.11 µM | IC50 ([1]; H460, single agent (Table 7), read-out: IC50 72 h): 1.11 µM | IC50 [2]: 1.32 µM | IC50 [3]: 9.5 µM | figure in parentheses after IC50 (undefined; apparently fold resistance vs H460stock) [3]: 7 | IC50 [4]: 10.8 µM | figure in parentheses after IC50 (undefined; apparently fold resistance vs H460stock) [4]: 8 | Combination index (CI) with cisplatin [5]: 0.4 | cytotoxicity, percentage of cell death ([6]; DLD-1, ChoKI 2 hours pre-treatment then TRAIL 24 h (both drugs combined)): 75% | cytotoxicity, percentage of cell death ([6]; DLD-1, drug alone): 53% | cytotoxicity ([7]; HT-29, ChoKI in combination with TRAIL): 81% | cytotoxicity ([7]; HT-29, drug alone): 48% | cytotoxicity ([8]; SW620, ChoKI in combination with TRAIL): 41% | cytotoxicity ([8]; SW620, drug alone): 9% | sensitivity across the cell lines [9]: very similar in all cell lines analysed | PARP degradation or caspase 3 activation [10]: increase

Where two headings read alike, the source gives them in different places.
